The record followed here is the supplement of paper PMC9446081.

SMILES strings stand for the structures. In all, about 39,000 compounds went through this assay and about 220 (0.56%) showed activity. This is one part of the list.
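Note: static incubation at 37 °C against the wild-type strain, values averaged over two biological replicates.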

This test deals with Escherichia coli K-12 BW25113. The test is described as follows: relative growth (OD600 normalised to plate interquartile mean) (fraction); higher = less growth inhibition, active = 0.2 or less. The conditions noted are these: 50 µM; LB; incubation time: overnight (16-24 h).
As for `C[C@@H]1CN([C@H](C)CO)C(=O)c2cccc(NC(=O)c3cnccn3)c2O[C@@H]1CN(C)S(=O)(=O)c1cccs1`, the relative growth is inactive: 0.993.

As to `Cc1ccc(S(=O)(=O)Nc2ccc3c(c2)C(=O)N([C@@H](C)CO)C[C@H](C)[C@H](CN(C)C(=O)Nc2ccc(F)cc2)OCCCC[C@@H](C)O3)cc1`, the relative growth is inactive: 1.01.

Take `C[C@@H]1CN([C@H](C)CO)S(=O)(=O)c2ccc(C#Cc3ccc(F)cc3)cc2O[C@H]1CN(C)S(C)(=O)=O`: the relative growth is inactive: 1.02.

For `COc1ccc(NC(=O)Nc2cccc3c2O[C@H](CN(C)Cc2ccc(Oc4ccccc4)cc2)[C@H](C)CN([C@H](C)CO)C3=O)cc1`, the relative growth is inactive: 1.04.

`CC1(C)CC(=O)C=C(NCC(=O)O)C1`: the relative growth was inactive: 0.991.

As to `C[C@H]1CN([C@@H](C)CO)C(=O)c2cccc(NC(=O)C3CCOCC3)c2O[C@@H]1CN(C)Cc1ccc(-c2ccccc2)cc1`, the relative growth was inactive: 1.03.

For the compound `C[C@H]1CN([C@@H](C)CO)C(=O)c2cccc(NC(=O)Nc3ccc(F)cc3)c2O[C@H]1CN(C)Cc1ccc(Oc2ccccc2)cc1`, the relative growth was inactive: 1.04.

As for `CCN(Cc1ccncc1)C(=O)C(CO)c1ccccc1` (stereo not drawn), the relative growth is inactive: 0.973.

For `Cc1ncc(NC(=O)c2cccc(C(F)(F)F)c2)cc1-c1cnc(OC2CCOCC2)c(N2CCOCC2)c1`, the relative growth was inactive: 0.996.

For `COc1ccc2c3c(ccc2c1)-c1[nH]c2ccccc2c1CC3`, the relative growth is inactive: 0.885.

In the case of `Cc1cccc(C)c1OC[C@@H](C)N`, the relative growth is inactive: 0.984.

Regarding `C[C@H](CO)N1C[C@H](C)[C@@H](CN(C)S(=O)(=O)c2ccccc2F)Oc2ncc(C#Cc3ccccc3)cc2C1=O`, the relative growth is inactive: 1.02.

Regarding `CS(=O)(=O)N1CCCCC1`, the relative growth was inactive: 1.01.

For `C[C@@H]1CN([C@H](C)CO)C(=O)c2cc(NC(=O)Nc3ccc(C(F)(F)F)cc3)ccc2O[C@@H](C)CCCCO[C@@H]1CN(C)S(=O)(=O)c1ccc(Cl)cc1`, the relative growth was inactive: 1.01.

On to `CC(C)NC(=O)N(C)C[C@@H]1Oc2ccc(NS(=O)(=O)c3cn(C)cn3)cc2CC(=O)N([C@@H](C)CO)C[C@H]1C`, for which the relative growth is inactive: 0.983.

As to `C[C@H]1CN([C@@H](C)CO)C(=O)c2cc(NC(=O)c3ccncc3)ccc2O[C@@H]1CN(C)S(=O)(=O)c1ccccc1`, the relative growth is inactive: 0.983.

On to `CC(C)CNC(=O)[C@@]1(c2ccc([N+](=O)[O-])cc2)CC(=O)N(CC23CC4CC(CC(C4)C2)C3)[C@@H]1c1ccc(CO)cc1I`, for which the relative growth was inactive: 1.

Regarding `C[C@H]1CN([C@@H](C)CO)C(=O)c2cc(NS(=O)(=O)c3cccs3)ccc2O[C@H]1CN(C)Cc1ccc(Oc2ccccc2)cc1`, the relative growth is inactive: 0.978.
